One assay deals with T1, MLKL (full length) (Homo sapiens, UniProt Q8NB16).
T1 construct: purchased DiscoverX (KINOMEscan service); host or cells: E. coli BL21-derived (T7 phage) or HEK293
T1 sequence (Q8NB16 1-471): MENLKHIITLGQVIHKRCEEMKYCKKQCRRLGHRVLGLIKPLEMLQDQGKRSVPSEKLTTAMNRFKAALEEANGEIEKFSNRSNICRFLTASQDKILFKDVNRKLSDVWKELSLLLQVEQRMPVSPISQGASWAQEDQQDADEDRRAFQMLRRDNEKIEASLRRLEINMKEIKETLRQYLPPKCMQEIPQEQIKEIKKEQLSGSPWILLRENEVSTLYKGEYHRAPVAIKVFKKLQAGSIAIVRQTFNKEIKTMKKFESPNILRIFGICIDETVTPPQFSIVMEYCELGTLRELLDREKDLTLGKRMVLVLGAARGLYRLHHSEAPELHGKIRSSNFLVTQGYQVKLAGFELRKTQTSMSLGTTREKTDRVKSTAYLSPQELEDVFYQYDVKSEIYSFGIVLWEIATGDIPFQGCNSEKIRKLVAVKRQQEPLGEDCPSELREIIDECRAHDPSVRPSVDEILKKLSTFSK
Description: KINOMEscan binding assay, MLKL. The note with it: equilibrium dissociation constant, class symbols. An excerpt: The Hill Slope was set to −1.

Assay [1] relates to U937 human histiocytic leukemia cell line. Description: Inhibition of TSQ induced necroptosis, 384 well plate format (CellTitre-Glo). The note with it: Homo sapiens, U-937; U937 cells, TSQ cocktail (TNF, Smac mimetic, Q-VD-OPh), CelltiterGlo; read-out: Inhibition of TSQ-induced necroptosis (IC50 cell-based assay). In short, it runs like this:
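IC50 is the inflection point of 4-parameter logistic curves of percent viability, measured as ATP by CellTiter-Glo after 48 h at 37 °C. Cells were U937 at 20,000 per well, given TNF-Fc (100 ng/ml)/Smac mimetic (500 nM)/Q-VD-OPh (10 μM). Compound was tested at 36 μM down in ten 3-fold steps, 0.3% DMSO.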

The subject of the next assay is U937 cells. Description: Counter screen: cell viability without the TSQ cocktail (CelltiterGlo). Also on record: species or system human. To be noted: Homo sapiens, U-937, cell viability by CelltiterGlo, read-out: Off-target effect (IC50 cell-based assay). The procedure: Counter screen: In parallel, all compounds were tested for their ability to affect cell viability. The same U937 cells were treated with compound in DMSO without the TSQ cocktail. This counter screen enabled evaluation of off-target effects. In this case, cell viability was measured by CelltiterGlo.
(Counterscreens check selectivity or assay interference.)

Where only a bound is given, the exact number is not on record here.

In general, Kd refers to the constant that tells how readily two partners part at equilibrium. A lower Kd goes with a tighter complex. Compound `CC[C@H](Oc1cc(-c2n[nH]c(Nc3cnccn3)c2C(N)=O)ccc1NS(=O)(=O)CC(F)(F)F)c1ccc(F)cc1` (single isomer, unassigned) [Compound 250] came in with a Kd at MLKL (full length) of 0.01 to 1 µM.
Still for that read-out and setting: to `NC(=O)c1c(-c2ccc(NS(=O)(=O)Cc3ccc(Cl)cc3)cc2)n[nH]c1Nc1cccc(C(F)(F)F)n1` [Compound 60, 3-(4-(((4-chlorophenyl)methyl)sulfonamido)phenyl)-5-((6-(trifluoromethyl)pyridin-2-yl)amino)-1H-pyrazole-4-carboxamide] belongs 0.01 to 1 µM; to `CCOc1nccc(Nc2[nH]nc(-c3ccc(NS(=O)(=O)CC)cc3)c2C(N)=O)n1` [Compound 98, 5-((2-ethoxypyrimidin-4-yl)amino)-3-(4-(ethylsulfonamido)phenyl)-1H-pyrazole-4-carboxamide], less than 0.01 µM; to `NC(=O)c1c(-c2ccc(NS(=O)(=O)Cc3ccc(OC(F)(F)F)cc3)cc2)n[nH]c1Nc1ccccn1` [Compound 135, 5-(pyridin-2-ylamino)-3-(4-(((4-(trifluoromethoxy)phenyl)methyl)sulfonamido)phenyl)-1H-pyrazole-4-carboxamide], 1 to 30 µM.
Same read-out and setting: to `NC(=O)c1c(-c2ccc(NS(=O)(=O)Cc3ccccc3)cc2)n[nH]c1Nc1ccccn1` [Compound 136, 3-(4-(phenylmethylsulfonamido)phenyl)-5-(pyridin-2-ylamino)-1H-pyrazole-4-carboxamide] belongs 1 to 30 µM.
Same read-out and setting: to `CCS(=O)(=O)Nc1ccc(-c2n[nH]c(Nc3cnccn3)c2C(N)=O)cc1OC1CCCc2cc(F)ccc21` (stereo not shown) [Compound 224, 3-{4-ethanesulfonamido-3-[(6-fluoro-1,2,3,4-tetrahydronaphthalen-1-yl)oxy]phenyl}-5-[(pyrazin-2-yl)amino]-1H-pyrazole-4-carboxamide] belongs less than 0.01 µM.
For the compound `CCS(=O)(=O)Nc1ccc(-c2n[nH]c(Nc3cnccn3)c2C(N)=O)cc1OCc1ccccn1` [Compound 261, 3-{4-ethanesulfonamido-3-[(pyridin-2-yl)methoxy]phenyl}-5-[(pyrazin-2-yl)amino]-1H-pyrazole-4-carboxamide], on MLKL (full length), the Kd is less than 0.01 µM.
What is called IC50 is the concentration needed to halve the response being measured. Take `C[C@H](Oc1cc(-c2n[nH]c(Nc3cc4n(n3)CCCN(C)C4)c2C(N)=O)ccc1NS(=O)(=O)C(F)F)c1ccc(F)cc1` [Compound 318, (S)-3-(4-((difluoromethyl)sulfonamido)-3-(1-(4-fluorophenyl)ethoxy)phenyl)-5-((5-methyl-5,6,7,8-tetrahydro-4H-pyrazolo[1,5-a][1,4]diazepin-2-yl)amino)-1H-pyrazole-4-carboxamide]: the IC50 in assay [1] is less than 0.01 µM; with U937 cells it was greater than 30 µM.
The corresponding values for `COCC(Oc1cc(-c2n[nH]c(Nc3cnccn3)c2C(N)=O)ccc1NS(=O)(=O)C(F)F)c1ccc(F)cc1` (stereo not shown) [Compound 319, 3-(4-((difluoromethyl)sulfonamido)-3-(1-(4-fluorophenyl)-2-methoxyethoxy)phenyl)-5-(pyrazin-2-ylamino)-1H-pyrazole-4-carboxamide] are 0.01 to 1 µM and greater than 30 µM.
Turning to `Cc1cc(Nc2c(C(N)=O)c(-c3ccc(NS(=O)(=O)C(F)F)c(O[C@@H](C)c4ccc(F)cc4)c3)nn2C)no1` [Compound 320, (S)-3-(4-((difluoromethyl)sulfonamido)-3-(1-(4-fluorophenyl)ethoxy)phenyl)-1-methyl-5-((5-methylisoxazol-3-yl)amino)-1H-pyrazole-4-carboxamide], the IC50 in assay [1] is less than 0.01 µM; in the assay on U937 cells it was greater than 30 µM.

For the origin of these results see patent publication US12583836B2 (Anaxis Pharma Pty Ltd, priority 2020, dated 2026).
